Measurements: PubChem BioAssay AID504333 (National Center for Advancing Translational Sciences (NCATS), 2011)
Where “and” joins values, the source holds several entries; their conditions need not be identical. Identical values can stand only once. Among all 360,000 compounds or so, about 16,000 (4.4%) were called active. This list was built around the results that the source calls inconclusive (neither active nor inactive); the mix of calls is not that of the screen. The call rests on the fitted dose curve; in most records, active means well fitted inhibition curve with a large enough effect; inconclusive means small, poorly fitted or top-dose-only effect; inactive means no such curve, though single readings can be large or run the other way. Potencies beside an inconclusive call are fits to weak or partial responses and may not hold up.

Each compound was assayed against Bromodomain adjacent to zinc finger domain protein 2B (Homo sapiens) (UniProt Q9UIF8) (assay: qHTS Assay for Inhibitors of BAZ2B). Conditions: AlphaScreen BAZ2B-H3K14Ac peptide displacement; activity change, negative = inhibition: at 114 µM (top of the series).
UniProt Q9UIF8, sequence (Q9UIF8 whole entry, looked up, the tested form may be a part): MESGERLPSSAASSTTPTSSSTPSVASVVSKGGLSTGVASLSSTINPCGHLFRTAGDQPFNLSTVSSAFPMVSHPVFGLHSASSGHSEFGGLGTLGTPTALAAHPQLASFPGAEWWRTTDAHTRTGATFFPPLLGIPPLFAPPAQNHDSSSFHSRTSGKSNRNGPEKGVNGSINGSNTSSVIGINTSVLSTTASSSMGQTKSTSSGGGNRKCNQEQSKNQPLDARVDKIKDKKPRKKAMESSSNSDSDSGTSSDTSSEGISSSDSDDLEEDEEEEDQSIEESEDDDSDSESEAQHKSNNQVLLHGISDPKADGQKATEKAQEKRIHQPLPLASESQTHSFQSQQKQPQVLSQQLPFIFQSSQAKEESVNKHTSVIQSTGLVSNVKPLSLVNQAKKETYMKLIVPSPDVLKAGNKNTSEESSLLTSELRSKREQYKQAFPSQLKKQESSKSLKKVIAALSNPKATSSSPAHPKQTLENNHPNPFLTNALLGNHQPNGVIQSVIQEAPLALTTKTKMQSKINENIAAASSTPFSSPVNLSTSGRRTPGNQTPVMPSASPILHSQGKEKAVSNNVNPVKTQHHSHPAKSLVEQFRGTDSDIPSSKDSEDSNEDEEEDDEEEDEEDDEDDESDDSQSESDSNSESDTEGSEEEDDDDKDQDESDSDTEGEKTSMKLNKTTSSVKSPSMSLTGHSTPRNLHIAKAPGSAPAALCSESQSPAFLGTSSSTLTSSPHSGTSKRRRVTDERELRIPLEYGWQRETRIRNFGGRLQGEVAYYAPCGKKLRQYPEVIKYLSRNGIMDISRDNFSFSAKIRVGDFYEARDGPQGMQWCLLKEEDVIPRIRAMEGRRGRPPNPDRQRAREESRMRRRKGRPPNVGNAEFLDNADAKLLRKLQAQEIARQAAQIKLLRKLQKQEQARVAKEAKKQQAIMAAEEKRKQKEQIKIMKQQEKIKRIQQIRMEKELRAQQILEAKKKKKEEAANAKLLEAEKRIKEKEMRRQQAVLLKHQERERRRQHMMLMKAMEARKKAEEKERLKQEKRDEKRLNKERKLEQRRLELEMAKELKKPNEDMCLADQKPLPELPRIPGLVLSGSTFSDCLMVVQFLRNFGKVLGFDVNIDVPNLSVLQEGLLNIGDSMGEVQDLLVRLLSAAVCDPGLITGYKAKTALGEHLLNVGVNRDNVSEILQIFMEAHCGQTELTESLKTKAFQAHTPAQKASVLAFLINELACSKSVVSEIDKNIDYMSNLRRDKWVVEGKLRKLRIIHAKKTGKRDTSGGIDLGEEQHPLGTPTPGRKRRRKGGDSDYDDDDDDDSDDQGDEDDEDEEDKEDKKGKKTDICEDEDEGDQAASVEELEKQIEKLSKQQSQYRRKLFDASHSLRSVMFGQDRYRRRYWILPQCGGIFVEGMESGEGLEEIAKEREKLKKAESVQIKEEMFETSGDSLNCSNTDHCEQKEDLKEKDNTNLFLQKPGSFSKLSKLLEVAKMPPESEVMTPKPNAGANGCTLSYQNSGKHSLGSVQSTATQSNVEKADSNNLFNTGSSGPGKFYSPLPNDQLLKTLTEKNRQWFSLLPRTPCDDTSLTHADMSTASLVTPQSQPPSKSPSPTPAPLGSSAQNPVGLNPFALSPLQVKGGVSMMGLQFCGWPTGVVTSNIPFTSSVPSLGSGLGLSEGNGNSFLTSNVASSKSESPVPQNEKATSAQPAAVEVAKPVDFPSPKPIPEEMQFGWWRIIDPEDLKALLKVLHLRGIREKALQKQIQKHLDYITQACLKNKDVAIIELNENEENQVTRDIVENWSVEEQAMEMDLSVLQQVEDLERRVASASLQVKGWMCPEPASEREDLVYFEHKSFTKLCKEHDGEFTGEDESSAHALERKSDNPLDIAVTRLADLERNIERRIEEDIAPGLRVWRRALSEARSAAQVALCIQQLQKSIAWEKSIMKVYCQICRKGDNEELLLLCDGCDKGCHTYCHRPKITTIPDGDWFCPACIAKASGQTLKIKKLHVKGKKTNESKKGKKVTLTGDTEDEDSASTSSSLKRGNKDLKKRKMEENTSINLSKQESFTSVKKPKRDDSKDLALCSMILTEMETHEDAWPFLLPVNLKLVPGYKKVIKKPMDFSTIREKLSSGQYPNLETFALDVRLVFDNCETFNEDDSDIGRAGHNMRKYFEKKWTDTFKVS
Method in brief: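 AlphaScreen luminescence quantifies BAZ2B engagement of H3K14Ac peptide; the protein and biotinylated peptide are both at 50 nM final, buffer PBS pH 7.4 with 0.01% Tween-20, all steps at room temperature.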
Further: nearly all actives have a fitted effect of over 60% in size.
On the % scale 0 is the no-effect control and ±100 the full control effect; potency means the concentration at half of the fitted maximal effect; tags describe the fitted curve by direction and shape.

Question: How did the Potency turn out when C=CCN(c1ccc(C(=O)NCCSc2ccccc2)cc1)S(C)(=O)=O was run?
Answer: inconclusive: 89.1 µM [inhibitor, single point]

Question: For CCOc1ccc(-c2cnc(N)n2C)cc1, which Potency is on record?
Answer: inconclusive: 20 µM [inhibitor, full curve]

Question: For COc1ccc2[nH]c3c(c2c1)CCN1C(=O)N([C@@H](C)C(=O)NCCc2ccc(OC)c(OC)c2)C(=O)[C@]31C, which Potency is on record?
Answer: inconclusive: 70.8 µM [inhibitor, single point]

Question: Cc1ccc(-c2cc(C(=O)NCCCn3ccnc3)no2)cc1 was tested. Which Potency did it give?
Answer: inconclusive: 89.1 µM [inhibitor, single point]

Question: For Cc1ccc(C(=O)N2CCN(c3ccc([N+](=O)[O-])c(NCc4cccnc4)c3)CC2)cc1, which Potency is on record?
Answer: inconclusive: 35.5 µM [inhibitor, partial curve]

Question: For N#CCC(=O)NNc1c([N+](=O)[O-])cc(C(F)(F)F)cc1[N+](=O)[O-], which Potency is on record?
Answer: active: 50.1 µM

Question: With CCn1c2ccccc2c2nnc(NN)nc21 as the compound, how does the Potency read?
Answer: inconclusive: 39.8 µM [inhibitor, partial curve, poor fit]

Question: With COc1ccc(-n2c(Cc3cccn3C)nnc2SCC(=O)NCCc2ccccc2)cc1 as the compound, how does the Potency read?
Answer: inconclusive: 79.4 µM [inhibitor, single point]

Question: Cc1cc(N)ccc1NC(=O)CN1CCCC1 was tested. Which Potency did it give?
Answer: active: 50.1 µM

Question: For CC1(C)NC(=O)N(CC(=O)OCC(=O)Nc2sccc2C#N)C1=O, which Potency is on record?
Answer: inconclusive: 89.1 µM [inhibitor, single point]

Question: CC(C)(C)C1CCc2c(sc(N)c2C(N)=O)C1 (stereo not given) was tested. Which “activity change, negative = inhibition” value did it give?
Answer: inactive: -19.7%

Question: Cc1snc(SCC(=O)c2ccc([N+](=O)[O-])cc2)c1C#N was tested. Which Potency did it give?
Answer: active: 14.1 µM

Question: For O=C(NCCc1c[nH]c2ccccc12)c1ccc(Cl)cc1, which Potency is on record?
Answer: inconclusive: 44.7 µM [inhibitor, partial curve]

Question: With O=C(COC(=O)C1CCCC1)Nc1ncc(Cl)cc1Cl as the compound, how does the Potency read?
Answer: inconclusive: 89.1 µM [inhibitor, single point]

Question: For Cc1ccc(-n2nc3ccc(NC(=O)/C=C/c4ccco4)cc3n2)cc1C, which Potency is on record?
Answer: inconclusive: 79.4 µM [inhibitor, single point]

Question: With O=C(O)c1ccc(S(=O)(=O)c2ccc3c(c2)C(=O)N(Cc2ccco2)C3=O)cc1 as the compound, how does the Potency read?
Answer: inconclusive: 89.1 µM [inhibitor, single point]

Question: With CCC(=O)OCc1cnc(C)c2oc(=O)c(C(=O)Nc3ccc(CC)cc3)cc12 as the compound, how does the “activity change, negative = inhibition” value read?
Answer: inactive: 0.713%

Question: How did the “activity change, negative = inhibition” value turn out when Cc1ccc(NC(=O)Cn2cnc3ccccc32)cc1C was run?
Answer: inactive: -2.87%

Question: Which Potency does the source give for COc1ccc(C(=S)Nc2ccc(N(C)C)cc2)cc1 here?
Answer: inconclusive: 100 µM [inhibitor, single point]

Question: How did the Potency turn out when Cc1ccccc1C(=O)Nc1ccnn1C1CCN(Cc2ccccn2)CC1 was run?
Answer: inconclusive: 89.1 µM [inhibitor, single point]

Question: Which “activity change, negative = inhibition” value does the source give for Cc1ccc2c(CC(=O)Nc3c(C(=O)c4ccc(F)cc4)oc4ccccc34)coc2c1 here?
Answer: inactive: -3.58%

Question: For COC(=O)/C=C1/SC(=NC(=O)c2ccc(OC)cc2)NC1=O, which Potency is on record?
Answer: inconclusive: 89.1 µM [inhibitor, single point]

Question: With CC1CCCCC1n1c(=S)[nH]c2ccccc2c1=O (stereo not given) as the compound, how does the “activity change, negative = inhibition” value read?
Answer: inactive: -20.4%

Question: Which Potency does the source give for COc1ccc(S(=O)(=O)n2nc(OC(=O)c3cccs3)cc2N)cc1 here?
Answer: inconclusive: 89.1 µM [inhibitor, single point]

Question: For O=C(NNc1ccc([N+](=O)[O-])cc1)C1CC2CCCC(C1)C2=O (stereo not given), which Potency is on record?
Answer: inconclusive: 89.1 µM [inhibitor, single point]

Question: With Cc1nc2ncccn2c1-c1csc(Nc2ccc(O)cc2)n1 as the compound, how does the Potency read?
Answer: inconclusive: 56.2 µM [inhibitor, partial curve]

Question: For COc1ccc(N(C(=O)c2cccc([N+](=O)[O-])c2)S(=O)(=O)c2ccc3c(c2)n(C)c(=O)n3C)cc1, which Potency is on record?
Answer: inconclusive: 89.1 µM [inhibitor, single point]

Question: Which “activity change, negative = inhibition” value does the source give for C=CCNC(=O)c1c(CSc2ccc(F)cc2)noc1C(=O)NCCC here?
Answer: inactive: 11.2%

Question: COCCNC(=O)Cn1cnc2c(cnn2-c2ccc(C)cc2)c1=O was tested. Which “activity change, negative = inhibition” value did it give?
Answer: inactive: -27.5%

Question: CNC(=S)N/N=C(\C)c1ccc(N2CCOCC2)cc1 was tested. Which Potency did it give?
Answer: inconclusive: 28.2 µM [inhibitor, full curve]

Question: CN1CCN(C(=O)c2ccc(C(C)(C)C)cc2)CC1 was tested. Which Potency did it give?
Answer: active: 79.4 µM

Question: How did the “activity change, negative = inhibition” value turn out when O=C(Nc1nc2c(s1)CCCC2)Oc1ccccc1 was run?
Answer: inactive: -34%

Question: How did the Potency turn out when CCOc1ccc(N)c(SSc2cc(OCC)ccc2N)c1 was run?
Answer: active: 31.6 µM

Question: How did the Potency turn out when COCc1nnc(NC(=O)c2ccc(S(=O)(=O)N(CC(C)C)CC(C)C)cc2)o1 was run?
Answer: inconclusive: 89.1 µM [inhibitor, single point]

Question: With CCn1c(SCc2ccc(F)cc2)nc2c(c1=O)SCC2 as the compound, how does the Potency read?
Answer: inconclusive: 25.1 µM [inhibitor, full curve, poor fit]

Question: For O=C(NC(NC(=S)Nc1ccccc1C(=O)O)C(Cl)(Cl)Cl)c1cccc([N+](=O)[O-])c1 (stereo not given), which “activity change, negative = inhibition” value is on record?
Answer: inactive: -5.69%

Question: With CCOc1ccc(C2=Nn3cnnc3SC2)cc1 as the compound, how does the Potency read?
Answer: inconclusive: 89.1 µM [inhibitor, single point]

Question: With CCCC(C(=O)O)N1C(=O)/C(=C2\C(=O)N(C)c3ccccc32)SC1=S (stereo not given) as the compound, how does the Potency read?
Answer: active: 44.7 µM

Question: For Cc1ccc(CSc2oc(-c3ccco3)nc2S(=O)(=O)c2ccc(Br)cc2)cc1, which Potency is on record?
Answer: inconclusive: 20 µM [inhibitor, full curve]

Question: O=C(O)c1cccc(NC2=C(N3CCOCC3)C(=O)c3ccccc3C2=O)c1 was tested. Which Potency did it give?
Answer: inconclusive: 79.4 µM [inhibitor, single point]

Question: CCN(CC)CCN1C(=O)Cn2c(C)c(C)c3cccc1c32 was tested. Which Potency did it give?
Answer: inconclusive: 50.1 µM [inhibitor, partial curve] and inconclusive: 35.5 µM [inhibitor, partial curve]

Question: For CC(C(=O)NC1CCCC1)N(C(=O)CS(=O)CC(=O)Nc1ccc(F)cc1)c1ccc2c(c1)OCCO2 (stereo not given), which Potency is on record?
Answer: inconclusive: 79.4 µM [inhibitor, single point]

Question: Which “activity change, negative = inhibition” value does the source give for CCOC(=O)c1ccc(N2C(=O)CC(NC3CCN(C(=O)c4ccc(F)cc4)CC3)C2=O)cc1 (stereo not given) here?
Answer: inactive: 8.15%

Question: How did the Potency turn out when Cc1cc(-c2n[nH]c(=S)n2/N=C/c2ccc(C)s2)n[nH]1 was run?
Answer: inconclusive: 89.1 µM [inhibitor, single point]

Question: How did the “activity change, negative = inhibition” value turn out when COc1ccccc1NC(=O)CSc1nnc(Cc2cccs2)n1C was run?
Answer: inactive: -10.1%
